Experimental data reported in PubChem BioAssay AID760 (NMMLSC, 2007).
In all, about 190,000 compounds went through this assay and about 360 (0.19%) were called active. Inconclusive results, whose numbers are uncertain, are shown with a selection of clear calls.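 How the source made its calls: active means GTP binding activity at least 20 points away from 100%, either lowered or raised; inconclusive means signal likely due to the compound's own green fluorescence; inactive means the rest.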

These molecules were tested against Ras-related protein Rab-2A (Canis lupus familiaris) (UniProt P61105) (assay: Rab2 wt fluorescent GTP binding changes, either direction – biochemical, dog, bead-based flow cytometry, multiplex, primary screen (AID 760;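 further: 0% = beads with excess unlabeled GTP and 100% = no-compound control corrected for plate trend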)). Settings: GST-Rab2 wt beads, Bodipy-GTP binding, at 10 µM.

Row | SMILES | GTP binding activity
1 | CCOc1ccc(C(C(=O)Nc2ccc(F)cc2)N(C(=O)Cn2nnc3ccccc32)C2CC2)cc1 (configuration not stated) | inconclusive: 101%
2 | COc1cc(C)c(S(=O)(=O)N2CCN(C)CC2)cc1C | inconclusive: 104%
3 | CC(C)NC(=O)CN(c1cccc([N+](=O)[O-])c1)S(=O)(=O)c1ccccc1 | inconclusive: 90%
4 | CCOC(=O)N1CCC(NC(=O)c2cc3c(-c4ccc(OC)c(OC)c4)nn(C)c3s2)CC1 | inconclusive: 84%
5 | COc1ccc(-c2noc(CCC(=O)NCC3CCN(Cc4cccc(C)c4)CC3)n2)cc1 | inconclusive: 102%
6 | CC(C)(C)C(=O)c1sc2nc(-c3cccs3)cc(C(F)(F)F)c2c1N | inconclusive: 119%
7 | COc1ccc2cc3cc(C(=O)NCCCN4CCOCC4)oc3nc2c1 | inconclusive: 91%
8 | O=C(CCCN1C(=O)c2cccc3cccc(c23)C1=O)N1CCN(c2ccc(F)cc2)CC1 | inconclusive: 94%
9 | Cn1c(N2CCN(c3ccccn3)CC2)nc2c1c(=O)n(Cc1ccc(Cl)cc1)c(=O)n2C | inconclusive: 86%
10 | CCc1nnc(NC(=O)c2cc(S(=O)(=O)N3CCOCC3)ccc2N2CCCCC2)s1 | inconclusive: 548%
11 | O=C(CN1CC(=O)Oc2ccccc21)OCC(=O)c1cccc(Br)c1 | inconclusive: 103%
12 | O=C(O)C1Nc2c(O)cc(Cl)c([N+](=O)[O-])c2C2C=CCC12 (configuration not stated) | inconclusive: 84%
13 | Cc1cc(C)c(S(=O)(=O)Cc2ccccc2)c(=O)[nH]1 | inactive: 98%
14 | COC(=O)c1ccccc1NC(=O)c1ccc(COc2cc(C)cc(C)c2)o1 | inconclusive: 101%
15 | Cc1cc2c(c(Sc3ccccc3)n1)C(=O)OC2 | inconclusive: 108%
16 | CC(=O)c1ccc2c(c1)CC(C)C(=O)N2C (configuration not stated) | inactive: 98%
17 | CCOc1cc(C(=O)Nc2ccc(NC(C)=O)cc2)ccc1OCC(=O)N1CCCCC1 | inactive: 99%
18 | CC(=O)Nc1nc(CC(C)C)cc2c1c(=O)oc1ccccc12 | inconclusive: 92%
19 | CNS(=O)(=O)c1cccc(C(=O)OCC(=O)Nc2ccc(OC)cc2[N+](=O)[O-])c1 | inactive: 95%
20 | c1ccc(-n2nnnc2OCCOc2nnnn2-c2ccccc2)cc1 | inconclusive: 94%
21 | CCNC(=S)Nc1cccc(F)c1C | inactive: 96%
22 | O=C(Nc1nc(-c2cccnc2)cs1)c1ccccc1F | inconclusive: 93%
23 | CCN1CCN(C(=O)CCN2C(=O)c3ccccc3C2=O)CC1 | inactive: 98%

Row | SMILES | GTP binding activity
24 | Cc1cccc2cc(C#N)c(NCCNS(=O)(=O)c3ccc4c(c3)OCCO4)nc12 | inconclusive: 90%
25 | O=C(c1ccco1)N1CCN(C(=O)c2cnn3c2NC(c2cccs2)CC3C(F)(F)F)CC1 (configuration not stated) | inconclusive: 101%
26 | CCC(C)Sc1nc2c(c(=O)[nH]c(=O)n2C)n1C (configuration not stated) | inactive: 103%
27 | O=C(NC(=S)Nc1ccccc1N1CCOCC1)c1sc2ccccc2c1Cl | inconclusive: 101%
28 | CC1(C)CC(=O)C/C(=N\NC(=O)c2cccs2)C1 | inconclusive: 103%
29 | CS(=O)(=O)c1ccc(C(=O)OCc2nnc(-c3ccccc3)o2)cc1[N+](=O)[O-] | inactive: 85%
30 | CC(C)C(=O)N1C2CCC1CC(O)(c1ccc(F)cc1)C2 (configuration not stated) | inconclusive: 92%
31 | S=c1[nH]c2ccccc2o1 | inactive: 98%
32 | CCn1cc(/C=N/NC(=O)COc2cccc3cccnc23)c2ccccc21 | inactive: 98%
33 | O=C(CNC(=O)c1ccccc1)Nc1cccc(C(F)(F)F)c1 | inconclusive: 633%
34 | Cc1c(N=Cc2ccc(-c3ccc(Cl)cc3)o2)c(=O)n(-c2ccccc2)n1C | inconclusive: 92%
35 | COc1cccc(C2CC(c3ccccc3OC)n3ncnc3N2)c1 (configuration not stated) | inactive: 99%
36 | COc1ccc(N2CCN(C(=O)CSc3nnc(NC(=O)C4CCC4)s3)CC2)cc1 | inactive: 101%
37 | COc1ccnc(N=CNOCc2cccc(C(F)(F)F)c2)c1C#N | inactive: 95%
38 | CC(Oc1ccc(Cl)cc1Cl)c1nc(-c2ccc(NC(=O)c3ccco3)cc2)no1 (configuration not stated) | inconclusive: 104%
39 | Cc1cc(NC(=O)c2sccc2C)n(-c2nc3ccccc3[nH]2)n1 | inconclusive: 89%
40 | CN(C)c1ccc(C(CNS(=O)(=O)c2ccc3ccccc3c2)c2c[nH]c3ccccc23)cc1 (configuration not stated) | inconclusive: 90%
41 | COc1ccc(-c2csc(N3CCOCC3)n2)cc1OC | inconclusive: 105%
42 | Cc1nc(Nc2cccc(C(C)O)c2)c2nnn(Cc3ccccc3F)c2n1 (configuration not stated) | inactive: 96%
43 | CCC(=O)NC(C)C(c1cccs1)N1CCN(c2ccccc2)CC1 (configuration not stated) | inconclusive: 101%
44 | Cc1cc(C)c(S(C)(=O)=O)c(NN)n1 | inconclusive: 113%
45 | O=C(O)c1ccccc1Sc1ncnc2sc3c(c12)CCC3 | active: 124% [activator]
46 | Cc1nc2ccc(NC(=O)c3ccc4ccccc4n3)cc2s1 | inconclusive: 91%

Row | SMILES | GTP binding activity
47 | Cc1c(C(=O)Nc2ccccc2)cn2c(nc3ccccc32)c1C#N | inconclusive: 89%
48 | CS(=O)(=O)Nc1cccc(C2=NN(S(=O)(=O)c3ccccc3)C(c3cccs3)C2)c1 (configuration not stated) | inconclusive: 107%
49 | O=C(NCc1ccco1)c1cccn2c(=O)c3c4c(sc3nc12)CCCC4 | inconclusive: 78%
50 | Cc1noc(C)c1CS(=O)(=O)c1ccc([N+](=O)[O-])cc1 | inactive: 99%
51 | O=C1NCCCC1C(=O)Nc1ccccn1 (configuration not stated) | inconclusive: 107%
52 | O=C(c1ccc2c(=O)n(-c3ccccc3)c(=O)[nH]c2c1)N1CCN(c2ccc(F)cc2)CC1 | inactive: 105%
53 | CCOC(=O)c1ccc(N2CCN(c3ccccc3F)CC2)c(NC(=O)Nc2ccccc2)c1 | inconclusive: 100%
54 | O=C(c1cc2cc([N+](=O)[O-])ccc2s1)N1CCCCC1 | inactive: 97%
55 | CCCCN(CC)c1nc(N)c(C#N)c(CC#N)c1C#N | inconclusive: 90%
56 | COc1ccc(CN(C(=O)c2ccc(-c3ccccc3)[nH]2)C(C(=O)NCC2CCCO2)c2ccc(C)o2)cc1 (configuration not stated) | inactive: 101%
57 | COc1ccc(CCNC(=O)C2CC(=O)N(c3ccc(Br)cc3)C2)cc1OC (configuration not stated) | inconclusive: 94%
58 | Cn1c(C(=O)N2CCN(C(=O)c3ccco3)CC2)cc2c(=O)n3ccccc3nc21 | inconclusive: 87%
59 | COc1cccc(NC(=O)CC2(CC(=O)O)CCCC2)c1 | inconclusive: 92%
60 | Oc1c(Br)cc(C=Nc2ccc3nc(-c4ccccc4)[nH]c3c2)c(O)c1Br | inconclusive: 82%
61 | O=C(O)c1ccc(NC(=S)NC2CCCCC2)cc1 | inactive: 100%
62 | O=C(c1ccco1)N1CCN(S(=O)(=O)c2ccccc2[N+](=O)[O-])CC1 | inactive: 98%
63 | Cc1nc(Nc2ccc(C(=O)O)cc2)nc(Nc2ccc(C(=O)O)cc2)c1[N+](=O)[O-] | active: 55%
64 | CCNC(=O)CC1C(=O)N(c2ccc(F)cc2)C(=S)N1CCc1ccncc1 (configuration not stated) | inconclusive: 99%
65 | Cc1cc(C)nc(NS(=O)(=O)c2ccc(N/C=C\C(=O)c3ccc(Cl)cc3)cc2)n1 | inconclusive: 103%
66 | CCOc1cccc(NC(=O)C2CC(=O)N(C)C(=Nc3cccc(F)c3)S2)c1 (configuration not stated) | inactive: 102%
67 | CCCc1cc(=O)[nH]c(SCC(=O)Nc2ccc(Br)cc2Br)n1 | inactive: 100%
68 | O=C(Nc1nc2ccccc2n1CCN1CCCCC1)C1CCCCC1 | inconclusive: 103%
69 | CCOc1ccccc1C1C(C(=O)OC)=C(N)OC2=C1C(=O)CCC2 (configuration not stated) | inactive: 118%

Row | SMILES | GTP binding activity
70 | O=C(CCc1nc2ccccc2c(=O)[nH]1)Nc1ccc(N2CCCCC2)cc1 | inconclusive: 95%
71 | Cc1ccc(Nc2nc(CSc3nnnn3-c3ccccc3)cs2)cc1 | inconclusive: 89%
72 | C/C(=N/NC(=O)CNc1ccc(Cl)cc1C)c1ccc(C)cc1 | inactive: 105%
73 | Cn1nccc1C(=O)Oc1ccc(/C=N/NC(=O)c2ccccc2O)cc1 | inactive: 95%
74 | COc1ccc2cc(C(C)=O)c(=O)oc2c1 | inconclusive: 103%
75 | Cc1ccc(-n2nnnc2CN2CCCCC2)cc1 | inactive: 96%
76 | Cc1nn2c(-c3cccc(NC(=O)c4ccco4)c3)nnc2c2ccccc12 | inconclusive: 74%
77 | Cc1ccc(-n2nc3c([n+]2[O-])CCc2c-3no[n+]2[O-])cc1 | inconclusive: 99%
78 | Cc1cc(C)cc(N(C(C)C(=O)N2CCOCC2)S(C)(=O)=O)c1 (configuration not stated) | inconclusive: 92%
79 | COc1cc(Cl)cc(C(=O)O)c1OCC(=O)O | inactive: 95%
80 | Cc1ccc(NC(=O)/C=C\C(=O)NCC(=O)O)cc1 | inactive: 94%
81 | COc1ccc(S(=O)(=O)N2CCN(C(=O)c3cccc(Cl)c3)CC2)cc1 | inconclusive: 104%
82 | COc1cc(-n2cnnn2)ccc1S(=O)(=O)N1CCOCC1 | inconclusive: 107%
83 | C[C@H](C(=O)C=[N+]=[N-])N1C(=O)c2ccccc2C1=O | inconclusive: 101%
84 | COc1ccc(/C=N/NC(=S)Nc2cccc(C(=O)O)c2)cc1 | inconclusive: 94%
85 | O=C1C(C=NCc2ccncc2)=C(O)c2ccccc21 | inconclusive: 105%
86 | COc1ccccc1Nc1nc(-c2c(C)nc3ncccn23)cs1 | active: 62%
87 | CN(C)c1ccnc2sc(C(=O)NCc3ccccc3)c(N)c12 | inconclusive: 90%
88 | CC1CC(C)(C)NC(=S)N1CCC(=O)N1CCc2ccccc21 (configuration not stated) | inactive: 101%
89 | Cc1ccc(C2CC(c3cccs3)n3nc(N)nc3N2)cc1 (configuration not stated) | inactive: 97%
90 | COc1ccc(-c2cc(=O)c(C(=O)c3ccc(C)cc3)n[nH]2)cc1 | inactive: 99%
91 | COc1ccc(OC)c(NS(=O)(=O)Cc2ccccc2)c1 | inconclusive: 83%
92 | Cc1ccc(Sc2c(C)nn(C(=O)C3CC3)c2C)cc1 | inactive: 81%
